Over roughly 33,000 sequences, “E-score (-0.5 to 0.5)” has its median near -0.016; the highest 2% begin near 0.31. This is one part of the list.
molecular target: Cst6 (UniProt P40535); assay: PBM E-score (8-mer binding enrichment) (E-score (-0.5 to 0.5)); higher = stronger / more preferred TF binding; most listed sequences are background and not binding sites; settings: protein concentration: 200 nM; construct: GST-DNA-binding domain
Description: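 Universal 'all 10-mer' protein binding microarrays (Agilent AMADID 015681) probed with GST-tagged S. cerevisiae TFs (full-length or DBD) made by in vitro transcription/translation (PURExpress), about 100-200 nM. Bound TF was detected with fluorescent anti-GST. Each ungapped 8-mer (which stands for itself and its reverse complement) is scored by the PBM enrichment score (E-score), a modified Wilcoxon-Mann-Whitney statistic from -0.5 to +0.5, computed with the Universal PBM Analysis Suite. Scale: above 0.35 generally sequence-specific binding.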

Point of comparison: AGTCCCCA, “PBM E-score” value -0.363. Against it:
- AAAAACTC — higher, 0.165
- AACATCTA — higher, -0.0563
- CCAACTAA — higher, -0.0265
- CACGGTCC — higher, -0.284
- CCACTTCA — higher, -0.197
- ATTACTGC — higher, 0.142
- GTAGAGAA — higher, 0.00912
- AGCTCCCA — higher, -0.281
- AGACTCTG — higher, -0.124
- AAAAATGT — higher, 0.139
- CCTGTAAC — higher, 0.0347
- GCCATAGC — higher, 0.0387
- AAATCATC — higher, 0.175
- AGGAAATC — higher, 0.0217
- ACGTTGCG — higher, 0.0483
- CCACAAAA — higher, 0.221
- CCCAACAC — higher, -0.221
- ACTATAAT — higher, 0.12
- CACTATGA — higher, 0.0196
- AGCGGAAC — higher, -0.0876
- GGACAATA — higher, 0.06
- ATAGCGGA — higher, -0.107
- CTAGCTTA — higher, 0.0979
- ACTCGAGG — higher, -0.16
- AGAAAAAT — higher, 0.17
- CCTTGCCG — higher, -0.0564
- GACAGCGC — higher, -0.0199
- TTATCCAA — higher, 0.162
- GACGGAAC — higher, 0.0352
- AGCAGTGG — higher, -0.048
- AGGTCTGA — higher, 0.0301
- CTGCGACC — higher, -0.358
- AACGCCGA — higher, 0.23
- GTTAGTGA — higher, 0.259
- AGAATTGA — higher, 0.0248
- ACGTGTGC — higher, 0.0207
- AAAGTCGG — higher, -0.144
- AATGATCC — higher, 0.026
- AGAACAAG — higher, 0.113
- AAGTAGCT — higher, -0.0483
- GTTGTATA — higher, 0.212
- AAGAGGCA — higher, 0.13
- CCAAGCAA — higher, -0.0563
- CACGTGCC — higher, 0.0716
- AGTTAGAG — higher, -0.085
- CTGTTTCC — higher, -0.106
- GCGGAGTA — higher, -0.116
- ACCCGGGA — higher, -0.226
- CACAATCG — higher, 0.0369
- GAAACAGC — higher, -0.187
- CCGCTAAC — higher, -0.053
- TAGGCGCA — higher, -0.0585
- CCATGGCA — higher, -0.102
- CCTGCTAC — higher, -0.178
- ACAGAACA — higher, 0.0685
- ACTCCGCA — higher, -0.133
- ATCACAGC — higher, 0.222
- AATGGGCC — higher, -0.21
- CCCTGATC — higher, -0.167
- CTGTCATA — higher, 0.186
- ACCGGTCG — higher, -0.323
- CCCATCAC — higher, -0.118
- CGAGAAGC — higher, -0.105
- CTCAACAG — higher, -0.0624
- CTATCTTA — higher, 0.0343
- GCTAAATA — higher, 0.166
- CCGGGTGC — higher, -0.247
- CAAATGTA — higher, 0.221
- GGAGTTAC — higher, -0.053
- GACGATTA — higher, 0.227
- CCGACCCG — higher, -0.0987
- GAAGACGC — higher, -0.0955
- CACCCCGG — higher, -0.19
- AATCACAC — higher, 0.188
- AGGTTACT — higher, -0.0856
- CAATATCA — higher, 0.126
- GTCAGAAC — higher, 0.0593
- CAGCGGAA — higher, -0.0792
- AATGGCAG — higher, -0.0875
- ACATAACA — higher, 0.227
- AGGTGACA — higher, 0.278
- ATATTTGA — higher, 0.166
- ATGCCTTA — higher, 0.157
- AGTCACCA — higher, 0.0433
- AATCATGT — higher, 0.139
- GGTCCTCA — higher, -0.147
- GCCCATGA — higher, 0.0245
- GCACGCCC — higher, -0.178
- GAGTTTGC — higher, -0.0936
- CTAAGCTC — higher, -0.152
- ACGGCCCT — higher, -0.051
- ATGGTGCG — higher, -0.135
- CACTTAAG — higher, 0.17
- AGGATTCG — higher, 0.028
- AGCTTCGA — higher, -0.0845
- CATGAGTA — higher, 0.0546
- TCTGGACA — higher, -0.209
- ACTGTCTC — higher, -0.135
- ACTTAAGT — higher, 0.244
- ATTGTGCG — higher, 0.122
- ACAGAGCG — higher, -0.0159
- GAGGGGAC — higher, -0.207
- CGATTAAC — higher, 0.0578
- CATTACCG — higher, 0.073
- ACAGACCG — higher, -0.139
- ACACATCA — higher, 0.177
- CCCGTCTA — higher, 0.00216
- GGGCAAAA — higher, -0.0509
- ACGGGCAT — higher, -0.12
- GAACGCTA — higher, -0.196
- GCAGGGAC — higher, -0.2
- GCTAGAGC — higher, -0.0947
- GTATAGCA — higher, 0.163
- CCTTCCAA — higher, -0.149
- CATAGGCG — higher, -0.0502
- TACACCTA — higher, 0.0217
- CACAACAC — higher, 0.124
- CAGTCCGG — higher, -0.28
- ATTGCTCC — higher, -0.0682
- CTCCATTC — higher, -0.2
- CACAGTAC — higher, -0.0711
- AAATCATT — higher, 0.137
- CTACGGTC — higher, -0.261
- CCCTTTTC — higher, 0.0325
- AGAATCCC — higher, -0.0334
- CTCGGGGC — higher, -0.19
- AAAGATTT — higher, 0.0387
- CATTCGCC — higher, -0.0704
- CGTTATCC — higher, -0.00758
- AACAGACC — higher, -0.00805
- CAACTCTG — higher, -0.182
- CTCGGATC — higher, -0.0879
- CCTGACCG — higher, -0.144
- ACGCGGTA — higher, -0.0528
- GTTCAGTA — higher, 0.0978
- GCATATAC — higher, -0.0289
- CCGGTGCC — higher, -0.114
- ACCTAGCC — higher, -0.24
- AGGCTGTG — higher, -0.113
- ATGCCATC — higher, 0.239
- AACCCGGA — higher, -0.319
- ATCAGCCA — higher, -0.119
- TACGGGGA — higher, -0.126
- AGGCCATC — higher, -0.168
- TCAGGTAA — higher, -0.00858
- AGCAGTTC — higher, -0.0692
- AAATGGAC — higher, 0.103
- CGTTATAA — higher, 0.161
- CGCGTAAC — higher, 0.0886
- ATTAAAGC — higher, 0.0848
- TCACTCCA — higher, 0.0486
- CAGCGCTC — higher, -0.141
- CGGTCAGA — higher, -0.216
- CTTCGCGA — higher, -0.219
- AAAAGGGT — higher, 0.0092
- TCGGATAA — higher, 0.0238
- TCTTATAA — higher, 0.111
- ATCGCCGA — higher, 0.193
- TACCCGTA — higher, -0.0666
- CTCCTACC — higher, -0.312
- ATATCGGA — higher, -0.089
- CAGCCTGG — higher, -0.208
- GTACGGAA — higher, 0.0659
- AGACTGTG — higher, -0.122
- ATATCCGC — higher, -0.0354
- CAAAAAGG — higher, 0.0223
- AGTTGTTC — higher, 0.108
- CTAATGTC — higher, 0.096
- AGTATGTC — higher, 0.155
- GCCCAAAC — higher, -0.104
- GAAATATC — higher, 0.014
